Results reported in the supplement of paper PMC12217912.
The list shows a part of the results. The full chains were built here from the parent and the listed change. Values near 0.05 are background.

B1: TEV protease; numbered along this chain (parent)
chain: MGESLFKGPRDYNPISSSICHLTNESDGHTTSLYGIGFGPFIITNKHLFRRNNGTLVVQSLHGVFKVKDTTTLQQHLVDGRDMIIIRMPKDFPPFPQKLKFREPQREERICLVTTNFQTKSMSSMVSDTSCTFPSGDGIFWKHWIQTKDGQCGSPLVSTRDGFIVGIHSASNFTNTNNYFTSVPKNFMELLTNQEAQQWVSGWRLNADSVLWGGHKVFMVKPEEPFQPVKEATQL

Variants of: B1
Experiment: raw area under fraction-flipped curve 0-4 h after induction (AUC4h, not background-subtracted), DNA-recorder readout of cleavage of the substrate (dimensionless); higher = more cleavage of the substrate by the protease variant
Settings: temperature: 34 °C; time window: 0-4 h after rhamnose induction
Protocol: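 In vivo DNA recorder in E. coli TOP10(DE3) ΔrhaA at 34 °C. Each TEVp single-site mutant (parent TEVp 0) is paired with a single-site variant of the 7-mer TEVs (canonical ENLYFQ|S). The substrate sits between flexible linkers in a Bxb1-sfGFP-TEVs-SsrA fusion, so cleavage stabilises Bxb1 and speeds flipping of a recombination array, read by NGS. The value is the raw area under the fraction-flipped curve over 0-4 h after rhamnose induction (AUC4h), with ≥20 reads per time point. It is not background-subtracted; inactive controls average about 0.047.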
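Note: Bxb1 expression induced with 0.2% (w/v) L-rhamnose at OD600 near 0.5, cultures sampled hourly, flipped fraction per protease–substrate barcode pair counted by paired-end Illumina sequencing.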

Row | Variant | area with substrate EALYFQS | area with substrate ECLYFQS | area with substrate EELYFQS | area with substrate EFLYFQS | area with substrate EILYFQS | area with substrate EKLYFQS | area with substrate EMLYFQS | area with substrate ERLYFQS | area with substrate EVLYFQS | area with substrate EYLYFQS | area with substrate EDLYFQS | area with substrate EGLYFQS | area with substrate ELLYFQS | area with substrate EPLYFQS | area with substrate EQLYFQS | area with substrate ESLYFQS | area with substrate EHLYFQS | area with substrate ETLYFQS | area with substrate EWLYFQS
1 | MGESLFKGPRDYNPISSSICHLTNESDGHTTSLYGIGFGPFIITNKHLFRRNNGTLVVQSLHGVFKVKDTTTLQQHLVDGRDMIIIRMPKDFPPFPQKLKFREPQREERICLVTTNFQTKSMSSMVSDTSCTFPSGDGIFWKHWIQTKDGQCGSPLVSTRDGFIVGIHSASNFTNTNNYFTSVPKNFMELLTNQEAQQWVSGWRLNADSVLWGGHKVFMVKPEEPFQPVKETTQL [A232T] | 0.142 | 0.138 | 0.0937 | 0.0918 | 0.112 | 0.0079 | 0.13 | 0.109 | 0.0645 | 0.129 | – | – | – | – | – | – | – | – | –
2 | MGESLFKGPRDYNPISSSICHLTNESDGHTTSLYGIGFGPFIITNKHLFRRNNGTLVVQSLHGVFKVKDTTTLQQHLVDGRDMIIIRMPKDFPPFPQKLKFREPQREERICLVTTNFQTKSMSSMVSDTSCTFPSGDGIFWKHWIQTKDGQCGSPLVSTRDGFIVGIHSASNFTNTNNYFTSVPKNFMELLTNQEAWQWVSGWRLNADSVLWGGHKVFMVKPEEPFQPVKEATQL [Q197W] | 0.0841 | 0.102 | 0.108 | 0.1 | 0.105 | 0.0933 | 0.0744 | 0.0894 | 0.0906 | 0.0844 | 0.095 | 0.0892 | 0.0649 | 0.0715 | 0.096 | 0.0814 | – | – | –
3 | MGESLFKGPRDYNPISSSICHLTNESDGHTTSLYGIGFGPFIITNKHLFRRNNGTLVVQSLHGVFKVKDTTTLQQHLVDGRDMIIIRMPKDFPPFYQKLKFREPQREERICLVTTNFQTKSMSSMVSDTSCTFPSGDGIFWKHWIQTKDGQCGSPLVSTRDGFIVGIHSASNFTNTNNYFTSVPKNFMELLTNQEAQQWVSGWRLNADSVLWGGHKVFMVKPEEPFQPVKEATQL [P96Y] | 0.143 | 0.122 | – | – | 0.0605 | – | – | 0.119 | – | 0.15 | – | – | – | – | – | 0.143 | – | – | –
4 | MGESLFKGPRDYNPISSSICHLPNESDGHTTSLYGIGFGPFIITNKHLFRRNNGTLVVQSLHGVFKVKDTTTLQQHLVDGRDMIIIRMPKDFPPFPQKLKFREPQREERICLVTTNFQTKSMSSMVSDTSCTFPSGDGIFWKHWIQTKDGQCGSPLVSTRDGFIVGIHSASNFTNTNNYFTSVPKNFMELLTNQEAQQWVSGWRLNADSVLWGGHKVFMVKPEEPFQPVKEATQL [T23P] | 0.0523 | 0.0488 | 0.0514 | 0.0464 | 0.0302 | 0.0401 | 0.036 | 0.0751 | 0.0405 | 0.0347 | 0.0411 | 0.0372 | 0.0503 | 0.0364 | 0.0475 | 0.0427 | 0.12 | 0.0486 | –
5 | MGESLFKGPRDYNPISSSICHLTNESDGHTTSLYGIGFGTFIITNKHLFRRNNGTLVVQSLHGVFKVKDTTTLQQHLVDGRDMIIIRMPKDFPPFPQKLKFREPQREERICLVTTNFQTKSMSSMVSDTSCTFPSGDGIFWKHWIQTKDGQCGSPLVSTRDGFIVGIHSASNFTNTNNYFTSVPKNFMELLTNQEAQQWVSGWRLNADSVLWGGHKVFMVKPEEPFQPVKEATQL [P40T] | 0.133 | 0.119 | 0.133 | 0.0906 | 0.0873 | 0.118 | 0.13 | 0.107 | 0.0892 | – | – | 0.0841 | 0.0861 | – | – | 0.108 | 0.108 | 0.128 | 0.135
6 | MGESLFKGPRDYNPISSSICHLTNESDGHSTSLYGIGFGPFIITNKHLFRRNNGTLVVQSLHGVFKVKDTTTLQQHLVDGRDMIIIRMPKDFPPFPQKLKFREPQREERICLVTTNFQTKSMSSMVSDTSCTFPSGDGIFWKHWIQTKDGQCGSPLVSTRDGFIVGIHSASNFTNTNNYFTSVPKNFMELLTNQEAQQWVSGWRLNADSVLWGGHKVFMVKPEEPFQPVKEATQL [T30S] | 0.0909 | 0.125 | 0.0779 | 0.103 | 0.0942 | 0.118 | 0.136 | 0.128 | 0.112 | 0.113 | 0.106 | 0.09 | 0.0852 | – | 0.127 | 0.119 | 0.114 | 0.117 | –
7 | MGESLFKGPRDYNPISSSICHLTNESDGHTTSLYGIGFGPFIITNKHLFRRNNGTLVVQSLHGTFKVKDTTTLQQHLVDGRDMIIIRMPKDFPPFPQKLKFREPQREERICLVTTNFQTKSMSSMVSDTSCTFPSGDGIFWKHWIQTKDGQCGSPLVSTRDGFIVGIHSASNFTNTNNYFTSVPKNFMELLTNQEAQQWVSGWRLNADSVLWGGHKVFMVKPEEPFQPVKEATQL [V64T] | 0.109 | 0.115 | – | – | – | 0.0972 | 0.114 | – | – | – | 0.0897 | – | – | – | 0.127 | 0.102 | 0.109 | – | –
8 | MGESLFKGPRDYNPISSSICHLTNESDGHTTSLYGIGFGPFIITNKHLFRRNNGTLVVQSLHGVFKVKDTTTLQQHLVDGRDMIIIRMPKDFPPFPQKLKFREPQREERICLVTTNFQTKSMSSMVSDTSCTFPSGDGIFWKHSIQTKDGQCGSPLVSTRDGFIVGIHSASNFTNTNNYFTSVPKNFMELLTNQEAQQWVSGWRLNADSVLWGGHKVFMVKPEEPFQPVKEATQL [W144S] | 0.129 | 0.102 | 0.0837 | 0.138 | 0.083 | 0.0806 | 0.0788 | 0.123 | – | 0.0507 | – | – | – | 0.0967 | 0.114 | 0.0971 | – | 0.0778 | –
9 | MGESLFKGPRDYNPISSSICHLTNESDGHTTSLYGIGFGPFIITNKHLFRRNNGTLVVQSLHGVFKVKDTTTLQQHLVDGRDMIIIRMPKDFPPFPQKLKFREPQREERICLVTTNFQTKSMSSMVSDTSCTFPSGDGIFWKHWIQTKDWQCGSPLVSTRDGFIVGIHSASNFTNTNNYFTSVPKNFMELLTNQEAQQWVSGWRLNADSVLWGGHKVFMVKPEEPFQPVKEATQL [G150W] | 0.053 | 0.0546 | 0.0665 | 0.0618 | 0.0554 | 0.0575 | 0.0652 | 0.0703 | 0.0653 | 0.0685 | 0.0666 | 0.0453 | 0.0494 | 0.0652 | 0.0571 | 0.0688 | 0.0565 | 0.0451 | 0.054
